B1: CPEB3 Ribozyme (parent)
chain: UAACAGGGGGCCACAGCAGAAGCGUUCACGUCGCAGCCCCUGUCAGAUUCUGGUGAAUCUGCGAAUUCUGCUGUAUAUCUC

Read counts are not given, so values of variants with three or more changes are uncertain.

Variants of B1 are the subject of the series. Put plainly: self-cleavage, relative activity (ratio to wild type); higher = more cleavage; in vitro, sequencing. A digest of the protocol: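 Relative activity was defined as the cleaved/total read fraction for a variant divided by the same fraction for the unmutated ribozyme. CPEB3 self-cleaving ribozyme libraries were made by rounds of error-prone PCR, barcoded, and transcribed in vitro with T7 RNA polymerase for 5 hours at 37°C, and cleavage ran through transcription plus a 15 min DNase I step before EDTA. Illumina sequencing of template-switched reverse transcripts gave the reads, and DNA sequencing mapped the barcodes. Averages come from three batches, using variants with at least 5 reads.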
U1C A3U A15U U51A U54C: the self-cleavage amounted to 0.84. As to U1C A35U U43C U66C, the self-cleavage is 0.08.

Turning to U1C U43A U49C U66C, the self-cleavage is 0.18. To U1C U31C U43C U48C U67A belongs 0.06; to U1C A15U U26A U43A G63U, 0.04; to U1C A5G A64G, 0.25. Consider U1C G24A U26C U48C U58C C68A, for which the self-cleavage came to 0.04.

U1C A13G U25C U80C: the self-cleavage came to 0.09. In the case of A2C A3C U25C G73A A75U U78C it was 0.28; in that of U1C G9A A15G U25A A28G, 0.85; in that of U1C U25C A35G U43A U66A, 0.37. Regarding U1C G8C A35U U51A, the self-cleavage turned out to be 0.08. To U1C A13U U26A A64U A65G U72C belongs 0.08; to U1C A3C A18G A20G A57G, 0.61. For the variant U1G C11U U54A A56G, the self-cleavage worked out at 0.21.

With U1C A20G U41C C71G U72A, the self-cleavage worked out at 0.22. Consider U1C A18G U25A, for which the self-cleavage is 0.43.

In the case of U1C G7C U49A U69A, the self-cleavage was found to be 0.04. In the case of U1C U31A U69C it was 0.16; in that of U1C G8C U26A, 0.4. Regarding U1C A21G U26C A47G U78C, the self-cleavage turned out to be 0.3.

U1C A28G U31A C50U U58C: the self-cleavage was 0.18. As for U1C A20U U25C, the self-cleavage stood at 0.38. With U1C A3G U41C U60C, the self-cleavage stood at 0.47. For the variant U1C A45G U54C U60C A65G, the self-cleavage came out at 0.49. Take U1C A21G U25C U31C U54C: the self-cleavage turned out to be 0.33. On to A2C G8A G63A U72C, for which the self-cleavage turned out to be 0.38.

With A2G A5U A18G A45G C81A, the self-cleavage was found to be 0.68. In the case of A2C A5G U49C U69A U80C, the self-cleavage worked out at 0.09. With U1C A56U U69C U72C, the self-cleavage was 0.14.

Take U1C U49C U66C: the self-cleavage stood at 0.06.

For U1C G10A A21G G22C A28G U41C, the self-cleavage came out at 0.05. To U1C G8A A28G U80C belongs 0.07; to U1C U58C A64C U66G, 0.2. U1C A18G A20G C32U A56G A64G A65G: the self-cleavage was 0.04. Take U1C C38U U43C: the self-cleavage was 0.25. In the case of U1C A28U U54C, the self-cleavage came to 0.41.

Take U1C C32U G33A A45G U51A: the self-cleavage was determined as 0.1. Regarding U1C U25C G30A U41A U51C, the self-cleavage stood at 0.09.

Regarding U1C U43C U48A U51A U80C, the self-cleavage is 0.35. As to U1C U26C A47G U51C A57G A64G, the self-cleavage was 0. For U1C U26C C59A, the self-cleavage was found to be 0.07. In the case of U1C G63A U69C U76A it was 0.41.

On to U1C A18U U74C, for which the self-cleavage was 0.68.

U1C G24U A56G U60C U74C: the self-cleavage is 0.16. As for U1C A5G A21U C39U U67C, the self-cleavage was determined as 0.28.

For A2G A5G C17U C40A G53A U60A A64G, the self-cleavage was found to be 0.13. In the case of U1C A13G G53A A56G U66A U72A U78A, the self-cleavage is 0.07. In the case of U1C A18C U43C U54A it was 0.18. Turning to U1C A45G A47U, the self-cleavage is 0.47. In the case of A2G A3U A15G C27U U43C it was 0.58; in that of U1C U25A U41A A57G U60C A65G, 0.04; in that of A2G A3G A18C A28G U48A, 0. As to U1C G42A U58C, the self-cleavage was 0.21. Consider U1C A20U U51C U54C, for which the self-cleavage amounted to 0.21.

Turning to A2G A5U G10A C12U, the self-cleavage was 0.18.

Regarding A2C A3G A35U U54C A56G U58C A64U, the self-cleavage was 0.08.

For U1C G6C A65G U66C, the self-cleavage stood at 0.07.

With U1C U41A U54C, the self-cleavage came out at 0.4.

As for U1C A21G A35G A47U U51A G63C U66C, the self-cleavage stood at 0.89. On to U1C A47C A57G, for which the self-cleavage was 0.35. For the variant U1C U69C U74A, the self-cleavage worked out at 0.35. U1C U51C A65G: the self-cleavage was 0.29. Turning to U1C G9U A21C G30A U43C, the self-cleavage turned out to be 0.16. As for U1C U51A U54A G61C, the self-cleavage is 0.49. For U1C A5U U31C U41A U54C U66C U76C, the self-cleavage stood at 0.19.

Turning to A2G A5G A15G U26A C38G A64G, the self-cleavage was 0.07.

As to A2G A13G U49C U76A, the self-cleavage is 0.28. In the case of U1C G7A A21G A28U A35G U58C, the self-cleavage worked out at 0.04. For the variant U1C U43C G61A, the self-cleavage was 0.34. Take U1C U49C U51C U60A: the self-cleavage was determined as 0.11.

Regarding U1C G10C G63A A64G, the self-cleavage turned out to be 0.06. In the case of A2C A45G U72A it was 0.45; in that of U1C C4U A64G A75G, 0.79; in that of U1C C29A G61C A64G G73C C79U, 0.09. To U1C A28U C37A U48C belongs 0.05; to U1C G10A U31C U43C, 0.18; to U1C G33U C50A U74G, 0.07. In the case of U1C A45U C62G, the self-cleavage came out at 0.26. As for U1C U51C U54C U80C, the self-cleavage was 1.16.

A2G A5G G7U G10C: the self-cleavage was 0.4. In the case of A2C A5G A13G U54A G61U U69C, the self-cleavage was found to be 0.17. Take U1C A13U A21G G24C G33A U49A U69C: the self-cleavage is 0.04.
